Assay results as given in PubChem BioAssay AID2546 (National Center for Advancing Translational Sciences (NCATS), 2010).
“And” between values parts separate entries of the source, which are not always exact repeats. Equal entries are not always repeated. Screen size: about 310,000 compounds; about 11,000 (3.5%) were called active. Inconclusive means that the source gave no clear call. Such entries were picked first, then a sample of the others. Calls come from the whole dose curve; as a rule, active = well fitted inhibition curve with a large enough effect; inconclusive = small, poorly fitted or top-dose-only effect, or effect the other way; inactive = flat fitted curve, though single readings scatter. Where the call is inconclusive, the potency comes from a doubtful curve fit.

Assay: VP16 counterscreen qHTS for inhibitors of ROR gamma transcriptional activity;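 note: Gal4-VP16 expression switched on by copper sulfate through the metallothionein promoter; nearly all actives have a fitted effect of over 50% in size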
Settings: Drosophila S2 Gal4-VP16 UAS-luciferase, luminescence, 20 h; series mostly up to 53.6 µM
Potency is the fitted concentration of half-maximal effect; tags give direction and shape of the fitted curve.

| Compound | Potency |
| --- | --- |
| CCOC(=O)c1c(N)sc(C(=O)Nc2ccccc2)c1C | inconclusive: 35.5 µM [inhibitor, single point] |
| O=C(CCl)Nc1cn(-c2ccccc2)nc1-c1ccccc1 | inconclusive: 12.6 µM [inhibitor, single point] |
| CCc1cc2cc3c(cc2nc1SCC(=O)Nc1nnc(C)s1)OCCO3 | inconclusive: 3.55 µM [inhibitor, single point] |
| Cc1ccc(CNC(=O)c2ccc([N+](=O)[O-])o2)cc1 | inconclusive: 35.5 µM [inhibitor, single point] |
| CCOC(=O)C1(Cc2cccc(OC)c2)CCN(Cc2cccc3cnccc23)CC1 | inconclusive: 35.5 µM [inhibitor, single point] |
| CN(CC(=O)N1CCN(c2cccc(Cl)c2)CC1)S(=O)(=O)c1cccs1 | inactive |
| CN1C(=O)[C@H]2[C@@H](/C=C/c3ccccc3)N3C(=O)CN(Cc4ccc(-c5ccccc5)cc4)C(=O)[C@@]3(Cc3ccccc3)[C@H]2C1=O | inconclusive: 3.55 µM [inhibitor, single point] |
| c1ccc(-c2csc3ncnc(NCCCN4CCOCC4)c23)cc1 | inactive |
| NC(=O)c1ccc(-c2ncc(-c3ccccc3)o2)cc1 | active: 11.2 µM |
| COc1cc(-c2cc(C(=O)Nc3cccc(S(=O)(=O)N(C)C)c3)c3ccccc3n2)cc(OC)c1OC | inconclusive: 11.2 µM [inhibitor, single point] |
| CC(=O)c1cc(-c2ccccc2)n(CC(=O)Nc2cccc(C)c2C)c1C | inactive |
| CN(C)CCNC(=O)c1sc2nc(-c3ccccc3)cc(C(F)(F)F)c2c1N | inconclusive: 22.4 µM [inhibitor, single point] |
| CC1(C)OC(=O)N(c2ccccc2)C12C=Cc1c(ccc3ccccc13)O2 (stereo not given) | inconclusive: 35.5 µM [inhibitor, single point] |
| C[C@@H](C(=O)O)c1ccc(N2Cc3ccccc3C2=O)cc1 | active: 2 µM |
| O=C(NNC(=O)c1cccs1)c1ccc(S(=O)(=O)N2CCCCC2)cc1 | inconclusive: 5.01 µM [activator, single point] |
| Cc1ccc(Oc2ncnc3sccc23)cc1 | inconclusive: 0.891 µM [inhibitor, full curve] |
| COc1ccc2c(c1OC)C(=O)N1c3ccccc3COC21 (stereo not given) | inconclusive: 0.794 µM [inhibitor, single point] |
| CCCNc1nc2c(c(=O)n(C)c(=O)n2C)n1CCc1ccccc1 | inconclusive: 35.5 µM [inhibitor, single point] |
| Nn1c(SCC(=O)Nc2cc(C(F)(F)F)ccc2Cl)nncc1=O | inconclusive: 12.6 µM [inhibitor, single point] |
| Cc1c(C#N)c(NC(=O)CCl)n(Cc2cccs2)c1C | inconclusive: 35.5 µM [inhibitor, single point] |
| Cc1ccc(NC(=S)NCC2CCN(C(C)c3ccccc3)C2)cc1 (stereo not given) | inconclusive: 35.5 µM [inhibitor, single point] |
| CCOc1ccc(NC(=S)NCc2ccco2)cc1 | inconclusive: 35.5 µM [inhibitor, single point] |
| CC1(C)Cc2c(sc3c2c(=N)n(Cc2ccco2)c(=O)n3Cc2ccccc2)CO1 | inconclusive: 28.2 µM [inhibitor, single point] |
| COc1cc(/C=N/n2c(=S)[nH]nc(C)c2=O)cc([N+](=O)[O-])c1O | inactive |

| Compound | Potency |
| --- | --- |
| CC(C)c1c(C#N)c(N)nc(SCC(=O)c2cc3ccccc3oc2=O)c1C#N | inconclusive: 35.5 µM [inhibitor, single point] |
| CS(=O)(=O)N1CCN(c2nc(-c3ccccc3)cs2)CC1 | inconclusive: 35.5 µM [inhibitor, single point] |
| O=[N+]([O-])c1ccc(Cl)c2cccnc12 | inactive |
| O=C(Nc1ccc(N=Nc2ccccc2)cc1)c1ccc(Cl)cc1Cl | inconclusive: 35.5 µM [inhibitor, single point] |
| CC(=O)N1CC23C=CC(CC2CC12CCCCCC2)O3 (stereo not given) | inactive |
| O=C(Nc1ccc(Br)cc1)c1cc([N+](=O)[O-])cc([N+](=O)[O-])c1 | inconclusive: 28.2 µM [inhibitor, single point] |
| CCCCCCCc1ccc(C2NC(=S)NC3=C2C(=O)c2ccccc23)cc1 (stereo not given) | inconclusive: 10 µM [inhibitor, partial curve] |
| CCOC(=O)N1CCN(C(=S)Nc2ccc(C)cc2C)CC1 | inconclusive: 35.5 µM [inhibitor, single point] |
| CCOC(=O)c1cnc(-n2nc(C)cc2C)nc1NC1CCCCC1 | active: 1.12 µM |
| CCCn1nnnc1SCC(=O)Nc1sc(C)c(C)c1C#N | inactive |
| CC(C)(C)c1cc(C(=O)NNc2cccc(Cl)c2)n(Cc2ccccc2)n1 | inconclusive: 12.6 µM [inhibitor, single point] |
| C/C(=N/Nc1nc(-c2ccccc2F)nc2ccccc12)c1ccccc1O | active: 7.94 µM |
| O=C(CCCCCn1c(=O)[nH]c2ccccc2c1=O)N1CCN(Cc2ccc3c(c2)OCO3)CC1 | inactive |
| Cc1cc(N2CCOCC2)nc2ccc(NC(=S)NC(C)C)cc12 | inconclusive: 11.2 µM [inhibitor, partial curve] |
| COc1ccc(Nc2sc(C(=O)c3ccc(Cl)cc3)c(N)c2C(=O)Nc2ccccc2OC)cc1 | inconclusive: 20 µM [inhibitor, single point] |
| Cc1cccc2c3c([nH]c12)CCNC3 | inactive |
| CN(C)S(=O)(=O)c1ccc(NC(=S)NC(=O)c2ccc(Br)o2)cc1 | inconclusive: 35.5 µM [inhibitor, single point] |
| CN(C)C(=O)C1C2NC(=S)N(c3cccc(Cl)c3)C1(C)Oc1ccc(Cl)cc12 (stereo not given) | inconclusive: 25.1 µM [inhibitor, single point] |
| COc1ccc(NC(=O)NNC(=O)C(C)Oc2ccc(C(C)C)cc2)c(OC)c1 (stereo not given) | inconclusive: 28.2 µM [inhibitor, single point] |
| COc1ccc(-c2cc(=O)c3c(O)cc(O)cc3o2)cc1 | inactive |
| CN(CC(=O)N1CCN(Cc2ccccc2)CC1)S(=O)(=O)c1ccc(Br)cc1 | inconclusive: 35.5 µM [inhibitor, single point] |
| CC(C)OC(=O)CC(=O)CSc1nc2c(c(-c3cccs3)c1C#N)CCC2 | inconclusive: 35.5 µM [inhibitor, single point] |
| c1ccc(C(NCCNC(c2ccccc2)c2ccccc2)c2ccccc2)cc1 | inconclusive: 17.8 µM [inhibitor, single point] and inconclusive: 35.5 µM [inhibitor, single point] |
| COCCCN(C(=S)Nc1cc(Cl)cc(Cl)c1)C(C)c1ccncc1 (stereo not given) | inconclusive: 25.1 µM [inhibitor, single point] |

| Compound | Potency |
| --- | --- |
| Cc1nc(N2CCC(C)CC2)c2oc3ccccc3c2n1 | inconclusive: 17.8 µM [inhibitor, single point] |
| COc1cc(/C=C2\SC(=O)NC2=O)ccc1Oc1ccc([N+](=O)[O-])cc1[N+](=O)[O-] | inactive |
| CCOc1ccc(NC(=O)CCNC(=O)c2ccc(Br)cc2)cc1 | inconclusive: 5.62 µM [inhibitor, single point] |
| O=[N+]([O-])c1ccc(NC(=S)NCCc2ccc(Cl)cc2)cc1 | active: 3.55 µM |
| O=C(Nc1ccccc1)C1=C(c2ccccc2)S(=O)(=O)CCS1(=O)=O | active: 2.24 µM |
| Clc1ccccc1Cn1c(/C=C/c2ccco2)nc2ccccc21 | inconclusive: 35.5 µM [inhibitor, single point] |
| Cc1nn2c(N)c(C#N)cnc2c1-c1ccccc1 | inconclusive: 35.5 µM [inhibitor, single point] |
| CCOn1c(=O)c(-c2cccs2)[n+]([O-])c2ccccc21 | inactive |
| C=CCc1cccc(/C=N/NC(=O)CNc2cccc3ccccc23)c1O | active: 1.12 µM |
| Cc1cccc(NC(=O)N(Cc2cc3cc(C)ccc3[nH]c2=O)CC2COCCO2)c1 (stereo not given) | inconclusive: 35.5 µM [inhibitor, single point] |
| CCCOc1ccc(-c2c(C(=O)N/N=C/c3ccc(OC)cc3)nnn2-c2nonc2N)cc1 | inconclusive: 35.5 µM [inhibitor, single point] |
| O=c1[nH]c2ccccc2n1CCC1CCCCC1 | inconclusive: 20 µM [inhibitor, single point] |
| N#CCCn1c(=O)c(-c2ccccc2)nc2cnc(N3CCNCC3)nc21 | inactive |
| Cc1cc(C)nc(N/N=C/c2ccco2)n1 | inactive |
| O=c1c2cc(Cl)ccc2nc(-c2ccccc2Cl)n1O | active: 20 µM |
| CCOc1ccc2[nH]cc(S(=O)(=O)c3ccc(Cl)cc3)c(=O)c2c1 | inconclusive: 25.1 µM [inhibitor, single point] |
| O=C(Nc1c2c(nn1-c1ccc([N+](=O)[O-])cc1)CS(=O)(=O)C2)c1ccco1 | inconclusive: 35.5 µM [inhibitor, single point] |
| CC(C)/C=C/C(=O)N1CCC(N2CCC(C(=O)N3CCOCC3)CC2)CC1 | inactive |
| COc1ccc(C(=O)c2sc3nc(-c4ccc(OC)cc4)ccc3c2N)cc1 | inconclusive: 12.6 µM [inhibitor, partial curve] |
| OCC1(Cc2ccc(Cl)cc2)CCN(Cc2ccccc2F)CC1 | inactive |
| CC1(C(=O)N2CCN(Cc3ccccc3Cl)CC2)CC1(Cl)Cl (stereo not given) | inconclusive: 15.8 µM [activator, single point] |
| COCC1CCCN(Cc2nc(C(c3ccccc3)c3ccccc3)no2)C1 (stereo not given) | inconclusive: 4.47 µM [activator, full curve, poor fit] |
